# Laboratory results published in the supplement of paper PMC12217912.
# Some of the results follow. Sequences were assembled here from the parent chain. Inactive controls read about 0.05.
# B1: TEV protease; numbered along this chain (parent)
# chain: MGESLFKGPRDYNPISSSICHLTNESDGHTTSLYGIGFGPFIITNKHLFRRNNGTLVVQSLHGVFKVKDTTTLQQHLVDGRDMIIIRMPKDFPPFPQKLKFREPQREERICLVTTNFQTKSMSSMVSDTSCTFPSGDGIFWKHWIQTKDGQCGSPLVSTRDGFIVGIHSASNFTNTNNYFTSVPKNFMELLTNQEAQQWVSGWRLNADSVLWGGHKVFMVKPEEPFQPVKEATQL
# Variants of: B1
# Assay: raw area under fraction-flipped curve 0-4 h after induction (AUC4h, not background-subtracted), DNA-recorder readout of cleavage of the substrate (dimensionless); higher = more cleavage of the substrate by the protease variant
# Settings: temperature: 34 °C; time window: 0-4 h after rhamnose induction
# Procedure: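 In vivo DNA recorder in E. coli TOP10(DE3) ΔrhaA at 34 °C. Each TEVp single-site mutant (parent TEVp 0) is paired with a single-site variant of the 7-mer TEVs (canonical ENLYFQ|S). The substrate sits between flexible linkers in a Bxb1-sfGFP-TEVs-SsrA fusion, so cleavage stabilises Bxb1 and speeds flipping of a recombination array, read by NGS. The value is the raw area under the fraction-flipped curve over 0-4 h after rhamnose induction (AUC4h), with ≥20 reads per time point. It is not background-subtracted; inactive controls average about 0.047.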
# 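Note: Bxb1 expression induced with 0.2% (w/v) L-rhamnose at OD600 near 0.5, cultures sampled hourly, flipped fraction per protease–substrate barcode pair counted by paired-end Illumina sequencing.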
Variant,area with substrate ENLYFQA,area with substrate ENLYFQC,area with substrate ENLYFQD,area with substrate ENLYFQE,area with substrate ENLYFQG,area with substrate ENLYFQH,area with substrate ENLYFQI,area with substrate ENLYFQK,area with substrate ENLYFQL,area with substrate ENLYFQM,area with substrate ENLYFQN,area with substrate ENLYFQP,area with substrate ENLYFQR,area with substrate ENLYFQS,area with substrate ENLYFQT,area with substrate ENLYFQY,area with substrate ENLYFQW,area with substrate ENLYFQF,area with substrate ENLYFQV,area with substrate ENLYFQQ
MGESLFKGPRDYNPISSSICHLTNESDGHTTSLYGIGFGPFIITNKHLFRRNNGTLVVQSLHGVFKVKDTTTLQQHLVDGRDMIIIRMPKDFPPFPQKLKFREPQREERICLVTTNFQTKKMSSMVSDTSCTFPSGDGIFWKHWIQTKDGQCGSPLVSTRDGFIVGIHSASNFTNTNNYFTSVPKNFMELLTNQEAQQWVSGWRLNADSVLWGGHKVFMVKPEEPFQPVKEATQL [S121K],0.117,0.126,0.0625,0.0743,0.105,0.0851,0.0601,0.0653,0.0677,0.0878,0.0738,0.0583,0.0637,0.114,0.0713,0.0754,,,,
MGESLFKGPRDYNPISSSICHLTNESDGHTTSLYGIGFGPFIITNKHLFRRNNGTLVVQSLHGVFKVKDTTTLQQHLVDGRDMIIIRMPKDFPPFPQKLKFREPQREERICLVTTNFQTKSISSMVSDTSCTFPSGDGIFWKHWIQTKDGQCGSPLVSTRDGFIVGIHSASNFTNTNNYFTSVPKNFMELLTNQEAQQWVSGWRLNADSVLWGGHKVFMVKPEEPFQPVKEATQL [M122I],0.111,,0.0742,,0.144,,0.0764,0.0816,0.0606,,0.0836,,0.052,0.104,,,0.0591,,,
MGESLFKGPRDYNPISSSICHLTNESDGHTTSLYGIGFGPFIITNKHLFRRNNGTLVVQSLHGVFKVKDTTTLQQHLVDGRDMIIIRMPKDFPPFPQKLKFREPQREERICLVTTNFQTKSVSSMVSDTSCTFPSGDGIFWKHWIQTKDGQCGSPLVSTRDGFIVGIHSASNFTNTNNYFTSVPKNFMELLTNQEAQQWVSGWRLNADSVLWGGHKVFMVKPEEPFQPVKEATQL [M122V],0.159,0.127,,,0.103,,0.0688,0.0492,,0.107,0.0778,,0.0615,0.103,0.0589,0.0921,0.0712,,,
MGESLFKGPRDYNPISSSICHLTNESDGHTTSLYGIGFGPFIITNKHLFRRNNGTLVVQSLHGVFKVKDTTTLQQHLVDGRDMIIIRMPKDFPPFPQKLKFREPQREERICLVTTNFQTKSMNSMVSDTSCTFPSGDGIFWKHWIQTKDGQCGSPLVSTRDGFIVGIHSASNFTNTNNYFTSVPKNFMELLTNQEAQQWVSGWRLNADSVLWGGHKVFMVKPEEPFQPVKEATQL [S123N],0.105,0.107,0.0747,,0.161,0.106,0.0592,0.0652,,0.101,0.0872,,0.0561,0.11,,0.0767,,0.0922,0.089,
MGESLFKGPRDYNPISSSICHLTNESDGHTTSLYGIGFGPFIITNKHLFRRNNGTLVVQSLHGVFKVKDTTTLQQHLVDGRDMIIIRMPKDFPPFPQKLKFREPQREERICLVTTNFQTKSMSSMCSDTSCTFPSGDGIFWKHWIQTKDGQCGSPLVSTRDGFIVGIHSASNFTNTNNYFTSVPKNFMELLTNQEAQQWVSGWRLNADSVLWGGHKVFMVKPEEPFQPVKEATQL [V126C],0.0932,,,,,,,0.0642,,,,0.0219,0.046,0.11,,,,,,
MGESLFKGPRDYNPISSSICHLTNESDGHTTSLYGIGFGPFIITNKHLFRRNNGTLVVQSLHGVFKVKDTTTLQQHLVDGRDMIIIRMPKDFPPFPQKLKFREPQREERICLVTTNFQTKSMSSMVIDTSCTFPSGDGIFWKHWIQTKDGQCGSPLVSTRDGFIVGIHSASNFTNTNNYFTSVPKNFMELLTNQEAQQWVSGWRLNADSVLWGGHKVFMVKPEEPFQPVKEATQL [S127I],0.103,0.113,0.0733,,0.117,0.091,0.064,0.0604,0.066,0.0915,,0.082,0.048,0.104,0.0656,0.0806,0.0652,0.0628,0.0536,0.0673
MGESLFKGPRDYNPISSSICHLTNESDGHTTSLYGIGFGPFIITNKHLFRRNNGTLVVQSLHGVFKVKDTTTLQQHLVDGRDMIIIRMPKDFPPFPQKLKFREPQREERICLVTTNFQTKSMSSMVLDTSCTFPSGDGIFWKHWIQTKDGQCGSPLVSTRDGFIVGIHSASNFTNTNNYFTSVPKNFMELLTNQEAQQWVSGWRLNADSVLWGGHKVFMVKPEEPFQPVKEATQL [S127L],0.126,0.124,,,0.104,0.0916,0.0703,0.0564,0.0435,,0.0749,0.0526,0.0533,0.116,0.0835,,,,,
MGESLFKGPRDYNPISSSICHLTNESDGHTTSLYGIGFGPFIITNKHLFRRNNGTLVVQSLHGVFKVKDTTTLQQHLVDGRDMIIIRMPKDFPPFPQKLKFREPQREERICLVTTNFQTKSMSSMVSDTECTFPSGDGIFWKHWIQTKDGQCGSPLVSTRDGFIVGIHSASNFTNTNNYFTSVPKNFMELLTNQEAQQWVSGWRLNADSVLWGGHKVFMVKPEEPFQPVKEATQL [S130E],0.083,,,,0.0726,0.0472,,,,,,0.0397,0.066,0.0862,,0.0898,,,,
MGESLFKGPRDYNPISSSICHLTNESDGHTTSLYGIGFGPFIITNKHLFRRNNGTLVVQSLHGVFKVKDTTTLQQHLVDGRDMIIIRMPKDFPPFPQKLKFREPQREERICLVTTNFQTKSMSSMVSDTSCCFPSGDGIFWKHWIQTKDGQCGSPLVSTRDGFIVGIHSASNFTNTNNYFTSVPKNFMELLTNQEAQQWVSGWRLNADSVLWGGHKVFMVKPEEPFQPVKEATQL [T132C],0.112,0.117,,,0.116,,0.0447,0.0463,0.0547,0.0975,0.0871,0.0804,0.0687,0.103,0.0657,,0.0104,,0.0559,0.0607
MGESLFKGPRDYNPISSSICHLTNESDGHTTSLYGIGFGPFIITNKHLFRRNNGTLVVQSLHGVFKVKDTTTLQQHLVDGRDMIIIRMPKDFPPFPQKLKFREPQREERICLVTTNFQTKSMSSMVSDTSCTMPSGDGIFWKHWIQTKDGQCGSPLVSTRDGFIVGIHSASNFTNTNNYFTSVPKNFMELLTNQEAQQWVSGWRLNADSVLWGGHKVFMVKPEEPFQPVKEATQL [F133M],0.0904,0.116,0.105,,0.115,0.0913,0.0537,,0.0583,0.0815,,,0.0637,0.11,0.0714,,0.0592,,0.0637,0.0745
